Data published in PubChem BioAssay (NCATS).
Inconclusive results, whose numbers are uncertain, are shown with a selection of clear calls. Active and inactive are the calls of the source. The call rests on the fitted dose curve; in most records, active means well fitted curve in either direction with a large enough effect (not every such curve was filed as active); inconclusive means small, poorly fitted or top-dose-only effect, or another doubt; inactive means flat fitted curve, though single readings scatter.

assay: NFAT Signaling Pathway (AID 444); conditions: Jurkat NFAT-bla M1, carbachol, beta-lactamase ratio, 5 h; at 17.2 µM (top of the series) unless noted;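 further: carbachol stimulus at about its EC50 of 1 µM final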
Procedure, shortened: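 Jurkat cells with NFAT-driven β-lactamase reporter and co-expressed M1 receptor, stimulated with carbachol (final 1 uM, ~EC50), compound titration, 5 h at 37 °C. CCF4 loaded 1 h at RT; 460/530 nm ratio gave %activity and AC50.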
On the % scale 0 is the no-effect control and ±100 the full control effect.

Row | Structure (SMILES) | activity change, negative = inhibition
1 | CC(=O)Oc1ccccc1C1OC(=O)c2ccccc2N1C(C)=O (centres undefined) | inactive: 12.4%
2 | Cc1cc(=O)oc(C)c1C(=O)NCC(C)C | inactive: -1.32%
3 | Cn1cccc1C(=O)N1CCC2(CCCN(Cc3nccs3)C2)CC1 | inconclusive: -74.3% [inhibitor] [at 7.69 µM]
4 | O=c1c(-c2ccc(Cl)cc2)nc2cnc(N3CCOCC3)nc2n1C[C@H]1CCCO1 | inactive: -5.22% [at 7.69 µM]
